Laboratory results published in PMC10726135.
Some of the results follow. At the low end of the ranking the order means little. The protein was read in a cell extract, so binding may be indirect.

What follows are sequences tested against T1, HNF4alpha8 (COS-7 nuclear extract) (UniProt P41235-5) (assay: protein-binding microarray). Conditions: COS-7 nuclear extract on double-stranded Agilent 4x180k PBM; binding buffer, salt, pH and temperature not given; high values mean tight binding; double strand, one strand shown; sequences stand for … in …GCCTAGGGAGATTAGAGTATCGGTCGA.
T1 sequence: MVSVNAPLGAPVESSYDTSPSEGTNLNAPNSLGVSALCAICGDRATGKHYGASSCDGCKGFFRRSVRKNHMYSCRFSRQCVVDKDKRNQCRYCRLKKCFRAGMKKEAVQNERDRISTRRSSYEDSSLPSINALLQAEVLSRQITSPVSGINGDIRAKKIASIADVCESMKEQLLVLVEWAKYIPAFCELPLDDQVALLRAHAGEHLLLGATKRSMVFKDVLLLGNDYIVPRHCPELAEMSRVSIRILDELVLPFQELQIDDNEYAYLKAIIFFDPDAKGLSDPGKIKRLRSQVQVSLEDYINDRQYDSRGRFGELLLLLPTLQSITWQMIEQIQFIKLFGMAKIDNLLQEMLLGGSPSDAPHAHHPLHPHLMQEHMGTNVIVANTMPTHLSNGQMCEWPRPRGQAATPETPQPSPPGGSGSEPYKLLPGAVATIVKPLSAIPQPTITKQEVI

| Sequence | binding signal (log2 normalized intensity) |
| --- | --- |
| AAGAATTGCTCAACCTGGACCTCATTAATA | 1.25 |
| AGCAAAGTTCAATTTCCAACAAATGAAACT | -0.885 |
| CAAAAGAGGCTTCCTGGGCCAGGTCACTTG | 0.615 |
| AGCTTGAGAAACAGGGGCTTAAACCTTTAA | -0.773 |
| CTCTCACCTGCCTAACATTCTCTAATCAGG | -1.31 |
| GTTTGTATTCCTTGTCCTTGACCCTTCCTC | 4.13 |
| TAGTGGCTGAAAGTACTGGCCAGATGAGGT | -0.774 |
| TGTGTCTTGATCTTGCAACTCAACCCTGGC | 0.635 |
| ACCGACCTTTGGTTCCTGAACTCAAACCCC | 3.35 |
| ACACAATCTAAAAAGTATGTCATAATGTAC | 1.42 |
| CTATTTACACAGCTGATGGAAGTTTGCCCT | 3.59 |
| CTCTAGCTGTCCTCCTCTGAAGGAACTTCT | -1.3 |
| ATAAATACCAAAGCCATGGCTCCAACCCGA | -1.29 |
| CCCCACCCCCCACCCCAGAAGTATGGGAAG | 4.55 |
| CACAGGAGAAAACAGCACAAGCAATGGCTG | -1.26 |
| GTTATCACAGCTGGCCCACTGTTCTCTCTA | -1.4 |
| CGGGTATGTGGGGCGTGTGTTAGACTTTGG | 4.91 |
| CCATAGCGAAGCCGGCGGCGGAATGCTTGT | -1.36 |
| GCTCTGTTTTACAAACACAATGGAAGGCTG | -1.31 |

| Sequence | binding signal (log2 normalized intensity) |
| --- | --- |
| ACCTCAACTCTCAGTTTGGCTCTTATGTCC | 1.21 |
| GAGGAAGGAATGCACATGCCTTAAGGGACC | -1.24 |
| GCAGGAGGTCAGAAACAGAAAGTCCGGGGG | -1.36 |
| GTCATGGCAACAGTTTTCTGGGATGCCCAA | 0.167 |
| GATGGTACAAATTCATGGCTGGGCTCGGCT | -1.37 |
| CTCTGCAACTCAGAGACAGGGATTGGTTCT | -1.19 |
| CTAACAAGCTGCCAAACTCTCACTCTACTC | -1.26 |
| GTGACCTTCGATCACCTCAAGAAAGAGGTG | 2.8 |
| TATTTGACCTTCGGCCTCAATTATAACTCA | 5.59 |
| CTGGACTCAAGGAATCCTCCTAAGTAGCCA | -1.39 |
| TTGAATTCCTGGAAATCCCGAAATAGAGCC | -1.34 |
| GCCTGTGCTAAGTTTCAAAGAGGAGGCAGA | -1.18 |
| CTGGTAAAGCACTTTGCCCCCAAGAAAAGG | 4.2 |
| CACTTGGTGGACATGGTTCACTGATTACTG | 0.694 |
| TTATCTCAGATGAGACTTTGGACTTTTGAA | 8.04 |
| CTCTTCAGAATGGCCTGCCCATCCCCCCAA | 5.38 |
| TCATATGGACTATGTTTACACAGCCTTGTA | 0.615 |
| TCCTCCAAAACCCAGTTCATAGGTCAATTC | 4.9 |
